Results from the supplement of paper PMC4967469.
IC50 is the fitted dose that halves viability relative to control wells, and lower means more sensitive; fits outside the tested doses are given as limits. AUC, from the same fit, is the share of area under the viability curve across the 256-fold dose range: 1 means no effect, lower means more sensitive. For part of these data: An inferred top dose is not printed in the source and was worked back from the curve model. For part of these data: Drugs with an entry number were screened twice under separate entries, and the two screens often disagree.

What was measured:
Assay in all cases: Viability of human cancer cell lines after 72 h of drug (GDSC screen)
Bicalutamide = compound: CC(O)(CS(=O)(=O)c1ccc(F)cc1)C(=O)Nc1ccc(C#N)c(C(F)(F)F)c1 [Bicalutamide]; conditions: top dose inferred
Method: (§1)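 Human cancer cell lines in 384-well plates, medium with 10% serum, drug for 72 h over a 256-fold dose range (nine 2-fold or five 4-fold steps up to the top dose). Adherent lines were fixed and stained with the nucleic acid dye Syto60, suspension lines read with resazurin; signal relative to control wells, capped at 0 and 100%. One two-parameter sigmoid per drug and line, fitted in a mixed model over all curves with the slope shared within a line.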

MP470 = compound: S=C(NCc1ccc2c(c1)OCO2)N1CCN(c2ncnc3c2oc2ccccc23)CC1 [MP470]; conditions: top dose 20 µM; top dose inferred
Method: as §1

KIN001-270 = compound: Cc1ccc(Nc2cc(-c3cccc(N4C(=O)c5ccccc5C4=O)c3)ncn2)cc1NS(C)(=O)=O [KIN001-270]; conditions: top dose 20 µM; top dose inferred
Method: as §1

T0901317 = compound: O=S(=O)(c1ccccc1)N(CC(F)(F)F)c1ccc(C(O)(C(F)(F)F)C(F)(F)F)cc1 [T0901317]; conditions: top dose 10.24 µM; top dose inferred
Method: as §1

Gemcitabine = compound: Nc1ccn([C@@H]2O[C@H](CO)[C@@H](O)C2(F)F)c(=O)n1 [Gemcitabine]; conditions: top dose 1.024 µM
Method: as §1

Nilotinib = compound: Cc1cn(-c2cc(NC(=O)c3ccc(C)c(Nc4nccc(-c5cccnc5)n4)c3)cc(C(F)(F)F)c2)cn1 [Nilotinib]; conditions: top dose 2 µM
Method: as §1

TW-37 = compound: CC(C)c1ccccc1Cc1cc(C(=O)Nc2ccc(S(=O)(=O)c3ccccc3C(C)(C)C)cc2)c(O)c(O)c1O [TW-37]; conditions: top dose 5 µM
Method: as §1

LFM-A13 = compound: C/C(O)=C(\C#N)C(=O)Nc1cc(Br)ccc1Br [LFM-A13]; conditions: top dose 16 µM; top dose inferred
Method: as §1

AUY922 = compound: CCNC(=O)c1noc(-c2cc(C(C)C)c(O)cc2O)c1-c1ccc(CN2CCOCC2)cc1 [AUY922]; conditions: top dose 0.256 µM; top dose inferred
Method: as §1

[1] = top dose 1.024 µM, screen: GDSC drug entry 150
[2] = top dose 10 µM, screen: GDSC drug entry 1502

Cell Line	AUC (Bicalutamide; [1])	IC50 (Bicalutamide; [1])	AUC (Bicalutamide; [2])	IC50 (Bicalutamide; [2])	AUC (MP470)	IC50 (MP470)	AUC (KIN001-270)	IC50 (KIN001-270)	AUC (T0901317)	IC50 (T0901317)	AUC (Gemcitabine)	IC50 (Gemcitabine)	AUC (Nilotinib)	IC50 (Nilotinib)	AUC (TW-37)	IC50 (TW-37)	AUC (LFM-A13)	IC50 (LFM-A13)	AUC (AUY922)	IC50 (AUY922)
NCI-H2023 (lung adenocarcinoma, adherent)	0.949	> 1020 nM	0.964	> 10000 nM	0.981	> 20000 nM	0.979	> 20000 nM	0.979	> 10200 nM	0.596	125 nM	0.954	> 2000 nM	0.502	316 nM	0.925	> 16000 nM	0.668	53.3 nM
YAPC (pancreas, adherent)	0.985	> 1020 nM	0.96	> 10000 nM	0.947	> 20000 nM	0.985	> 20000 nM	0.976	> 10200 nM	0.983	> 1020 nM	0.983	> 2000 nM	0.608	669 nM	0.943	> 16000 nM	0.892	> 256 nM
JHH-7 (liver, adherent)	0.989	> 1020 nM	0.96	> 10000 nM	0.762	6760 nM	0.973	> 20000 nM	0.94	> 10200 nM	0.268	14.7 nM	0.981	> 2000 nM	0.607	601 nM	0.989	> 16000 nM	0.561	23.2 nM
NCI-H1781 (lung adenocarcinoma, adherent)	0.989	> 1020 nM	0.975	> 10000 nM	0.989	> 20000 nM	0.985	> 20000 nM	0.989	> 10200 nM	0.227	10.3 nM	0.989	> 2000 nM	0.452	231 nM	0.974	> 16000 nM	0.756	87.4 nM
KMH-2 (thyroid, adherent)	0.99	> 1020 nM	0.989	> 10000 nM	0.79	7850 nM	0.987	> 20000 nM	0.99	> 10200 nM	0.304	19.3 nM	0.962	> 2000 nM	0.532	377 nM	0.979	> 16000 nM	0.685	49.3 nM
JHU-022 (head and neck, adherent)	0.972	> 1020 nM	0.955	> 10000 nM	0.979	> 20000 nM	0.982	> 20000 nM	0.982	> 10200 nM	0.768	487 nM	0.95	> 2000 nM	0.588	580 nM	0.948	> 16000 nM	0.68	58.6 nM
HCC-15 (lung squamous cell carcinoma, adherent)	0.981	> 1020 nM	0.96	> 10000 nM	0.972	> 20000 nM	0.978	> 20000 nM	0.961	> 10200 nM	0.682	241 nM	0.919	> 2000 nM	0.608	673 nM	0.936	> 16000 nM	0.654	48.7 nM
LNZTA3WT4 (glioma, adherent)	0.989	> 1020 nM	0.983	> 10000 nM	0.891	> 20000 nM	0.97	> 20000 nM	0.971	> 10200 nM	0.369	28 nM	0.988	> 2000 nM	0.464	250 nM	0.976	> 16000 nM	0.695	55.6 nM
639-V (bladder, adherent)	0.99	> 1020 nM	0.989	> 10000 nM	0.987	> 20000 nM	0.977	> 20000 nM	0.986	> 10200 nM	0.727	251 nM	0.987	> 2000 nM	0.615	616 nM	0.978	> 16000 nM	0.333	5.93 nM
HCC1954 (breast, adherent)	0.975	> 1020 nM	0.952	> 10000 nM	0.955	> 20000 nM	0.984	> 20000 nM	0.98	> 10200 nM	0.887	> 1020 nM	0.977	> 2000 nM	0.684	1120 nM	0.984	> 16000 nM	0.941	> 256 nM
NCI-H28 (mesothelioma, adherent)	0.981	> 1020 nM			0.953	> 20000 nM	0.98	> 20000 nM	0.973	> 10200 nM	0.71	306 nM	0.956	> 2000 nM	0.528	382 nM	0.977	> 16000 nM	0.838	> 256 nM
NCI-H1688 (small cell lung carcinoma, adherent)	0.984	> 1020 nM	0.977	> 10000 nM	0.537	1600 nM	0.947	> 20000 nM	0.979	> 10200 nM	0.826	704 nM	0.987	> 2000 nM	0.838	3890 nM	0.985	> 16000 nM	0.809	151 nM
IPC-298 (melanoma, adherent)	0.987	> 1020 nM	0.986	> 10000 nM	0.944	> 20000 nM	0.987	> 20000 nM	0.973	> 10200 nM	0.589	112 nM	0.988	> 2000 nM	0.457	238 nM	0.986	> 16000 nM	0.718	65.4 nM
KYSE-410 (oesophagus, adherent)	0.982	> 1020 nM			0.98	> 20000 nM	0.985	> 20000 nM	0.982	> 10200 nM	0.449	46.1 nM	0.977	> 2000 nM	0.62	683 nM	0.977	> 16000 nM	0.494	15.4 nM
